The subject of the assay is 653999-131-R-J2-PDC complex spheroids, growth % test/control. Put plainly: Anticancer human tumor 653999-131-R-J2-PDC patient-derived lung adenocarcinoma cell line growth inhibition [AhR]. The settings on record: for IC50: compound alone; for viability, T/C: stronger effect = lower value. From the text:
Multicellular complex tumor spheroid response to aryl hydrocarbon receptor antagonists in combination with a variety of drugs and investigational agents in selected tumor cell lines
The current study was undertaken to assess response to aryl hydrocarbon receptor antagonists in combination with standard-of-care drugs and investigational agents in solid tumor complex spheroid models. Complex spheroids include a stromal component modeled by human endothelial cells (HUVEC) and fibroblasts modeled by human mesenchymal stem cells (MSCs). The concentration ranges selected for each drug and investigational agent were based upon clinically achievable concentrations if the clinical Cmax of the agent was known.
Compounds. The drugs and investigational agents: BAY 2416964 (NSC825713), GNF351 (NSC835774), CH-223191 (NSC835775), CPI-455 (NSC825282), aza-TdCyd (NSC777586), decitabine (NSC127716), belinostat (NSC758774), entinostat (NSC756642), pevonedistat (NSC761192), tazemetostat (NSC777109), talazoparib (NSC765396), olaparib (NSC753686), selinexor (NSC780203), nedisertib (M3814, NSC802822), bortezomib (NSC756655), venetoclax (NSC766270), doxorubicin (NSC123127), elimusertib (BAY189344, NSC800525), ceralasertib (AZD6738, NSC777638), TAK-243 (NSC785004), alisertib (NSC759677), etoposide (NSC141540), topotecan (NSC609699), eribulin (NSC707389), gemcitabine (NSC613327), carboplatin (NSC241240), cisplatin (NSC119875), and SN-38 (NSC673596) were obtained from the National Cancer Institute (NCI) Developmental Therapeutics Program Chemical Repository (32). The FDA-approved anticancer drug set is available from the Developmental Therapeutics Program at https://dtp.cancer.gov/organization/dscb/obtaining/available plates.htm. […] The stock solutions were prepared in dimethyl sulfoxide (DMSO, Sigma-Aldrich, St. Louis, MO, cat. D2650), except for the platinum compounds which were prepared in saline (Quality Biological, Gaithersburg, MD, cat. 114-055-101), at 800-fold the tested concentration and stored at -70 degrees C prior to their use. All drugs and investigational agents were tested over a range starting from a high concentration at or near the clinical Cmax and decreasing in half-log increments. If the clinical Cmax for an agent had not been determined, the highest concentration tested was 10 microM (Table 1).
Cell Culture. All cells were maintained in an incubator at 37 degrees C and 5% CO2 with 95% humidity. The PDC lines were cultured according to standard operating procedures established by the NCI PDMR (https://pdmr.cancer.gov). Briefly, all PDCs were thawed and cultured in Matrigel-coated flasks prepared with a working solution of 1X Ham's F-12 nutrient mix, without supplementation (Invitrogen, Waltham, MA, cat. 11765054), 100 U/mL penicillin-streptomycin (Invitrogen, cat. 15140122), and 2.5% Matrigel (Corning Inc., Corning, NY, cat. 354248) for the first three passages. All PDCs were cultured in complete DMEM/F-12 media containing advanced DMEM/F-12 (Invitrogen, cat. 12634028), 4.9% defined fetal bovine serum, heat inactivated (HyClone Laboratories Inc., Logan, UT, cat. SH30070.03HI), 389 ng/mL hydrocortisone (Sigma-Aldrich, cat. H4001), 9.7 ng/mL human EGF recombinant protein (Invitrogen, cat. PHG0313), 23.4 microg/mL adenine (Sigma-Aldrich, cat. A2786), 97.3 U/mL penicillin-streptomycin (Invitrogen, cat. 15140122), 1.9 mM L-glutamine (Invitrogen, cat. 25030081), and 9.7 microM Y-27632 dihydrochloride (Tocris Bioscience, Bristol, United Kingdom, cat. 1254). The PDCs were cultured in complete DMEM/F12 media without 10 microM Y-27632 dihydrochloride for at least two passages prior to the screen. The established cell lines NCI-H1341 and […] were cultured in DMEM/F-12, HEPES (Invitrogen, cat. 11330032), 5% defined fetal bovine serum (HyClone Laboratories Inc., cat. SH30070.03), ITS premix universal culture supplement [insulin (5 microg/mL), transferrin (5 microg/mL), and selenious acid (5 ng/mL)] […]

SMILES strings stand for the structures. Some entries of the source have several records that differ or are many. Only these are listed. The source may hold further records. Results that share an entry repeat one measurement in other runs, samples, wells, individuals or studies. Brackets with × give the number of equal values in this list. A date in brackets names the month of the test.

Drawing on PubChem BioAssay AID1919000 (Molecular Pharmacology Branch, DTP, NCI, 2023), this text covers IC50 and viability, T/C for four compounds.

Broadly, the IC50 is the point on the concentration scale where inhibition reaches its midpoint.
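Further: spheroids exposed to agents for seven days.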

`Nc1ccn(C2OC(CO)C(O)C2(F)F)c(=O)n1` (stereo not given): the IC50 is 4.08 µM [2022-05] and 379 nM, 460 nM [2022-06].

As for `Cc1ccccc1N=Nc1ccc(NC(=O)c2ccnn2C)c(C)c1`, the viability, T/C is, setting by setting: (compound alone 0.316 µM) 94, 93, 95.8, 101, 96, 103, 95.5, 99.1, 92.2, 92.5, 93.7, 91.8, 100, 89.5, 96.4, 81.9, 87.5, 102, 99.2, 108%; (compound alone 3.16 µM) 97.2, 77.7, 87.6, 104, 88.8, 94.3, 90.2, 101 (2×), 92, 82, 85.4, 81.2, 103, 94.6, 89.7, 98, 85.8, 106, 97.1%; (compound alone 10 µM) 92.2, 84.8, 84.3, 107 (2×), 92.8, 89.5, 84.4, 89.8, 85.7, 79.8, 91.1, 75.2, 96.4, 81.9, 82.4, 99.3, 76, 102, 87.5, 98.9%.

Turning to `CC(CO)NC(=O)c1cc(-c2ccc(Cl)cc2)nn(-c2cnn(C)c2)c1=O` (stereo not given), the viability, T/C by setting is: (compound alone 0.316 µM) 104 (2×), 110, 97.5, 91.7, 98.2, 96.3, 91.2, 90.8, 89.8, 93, 105, 94.3 (2×), 78.3, 91, 102, 101, 89.7, 92.4, 94.5%; (compound alone 1 µM) 92.1, 102, 95.8, 92, 91.7, 94.9, 98.7, 83.2, 98.4, 108, 114, 81, 86.9, 91.9, 91.8, 106 (2×), 99.5, 87.9, 89, 77.8%; (compound alone 3.16 µM) 109, 116 (2×), 85.6, 102, 92.6, 93.5, 98.5 (2×), 95.4, 96.5, 87.7, 101, 106, 111, 122, 86.6, 119, 90.4%; (compound alone 10 µM) 99.2, 99.9, 85.1, 115, 107 (2×), 87.7, 83.1, 87.3, 123, 94.2, 89.5, 105 (2×), 99.7, 114, 127, 89.3, 83%.

`Cc1cncc(-c2nc(NCCc3c[nH]c4ccccc34)c3ncn(C(C)C)c3n2)c1`: the viability, T/C (compound alone 3.16 µM) is 94.7, 96, 107 (2×), 105 (2×), 99.8, 102, 118, 92.1, 112, 103, 106 (3×), 104, 121, 81, 101, 109%. Moreover, the IC50 (run of 06/06/2022) is 9.17 µM, > 10 µM, 9.42 µM, 9.88 µM, 9.87 µM, 9.7 µM, 9.99 µM, 9.58 µM, 8.38 µM.
